Data: PubChem BioAssay AID360 (National Center for Advancing Translational Sciences (NCATS), 2006)
The campaign covered roughly 48,000 compounds. About 550 (1.1%) were called active. Roughly 4% stayed inconclusive and do not appear here. Rule as the data show it: active = potency below about 15 µM; inconclusive = mostly about 16 µM to 33 µM; inactive = weaker than that. The list shows a part of the results.
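Also: the screen sought inhibitors.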
Potency is read from the fitted curve at half-maximal effect.

Each compound was assayed against Lysosomal acid glucosylceramidase (Homo sapiens) (UniProt P04062) (assay: Glucocerebrosidase). Settings: purified enzyme, resorufin glucoside fluorescence (screen aimed at inhibitors), 20 min.
Chain of UniProt P04062 (P04062 whole entry, looked up): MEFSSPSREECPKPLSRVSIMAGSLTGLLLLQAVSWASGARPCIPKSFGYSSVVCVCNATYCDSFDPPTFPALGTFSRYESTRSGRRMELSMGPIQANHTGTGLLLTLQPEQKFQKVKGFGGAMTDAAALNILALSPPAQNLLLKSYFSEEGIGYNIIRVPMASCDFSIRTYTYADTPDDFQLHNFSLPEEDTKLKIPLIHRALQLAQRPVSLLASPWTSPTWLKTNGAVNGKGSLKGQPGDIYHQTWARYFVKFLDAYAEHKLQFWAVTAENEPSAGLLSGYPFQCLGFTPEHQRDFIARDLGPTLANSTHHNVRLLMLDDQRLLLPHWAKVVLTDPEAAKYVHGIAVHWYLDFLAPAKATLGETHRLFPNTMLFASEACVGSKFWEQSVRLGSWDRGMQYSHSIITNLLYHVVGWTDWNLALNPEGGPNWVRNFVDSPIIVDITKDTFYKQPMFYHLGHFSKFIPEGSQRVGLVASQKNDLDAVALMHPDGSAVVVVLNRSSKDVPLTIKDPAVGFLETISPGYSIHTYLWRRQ
Procedure, shortened: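 Normal human glucocerebrosidase (0.2 nM final) was assayed with resorufin β-D-glucopyranoside (30 uM final) in 50mM citric acid/KH2PO4, 10mM sodium taurocholate, 0.01% tween-20, pH 5.9. Compounds were titrated; fluorescence (Ex 548, Em 600) read after 20 min at RT.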
`CSC1=NP(=S)(SC)N(C)c2nc3n(c21)CCC3` (centres undefined) was tested, and the Potency was inactive: > 76.9 µM.
With `CC(=NCCN1CCCCC1)c1c(O)[nH]c(=O)[nH]c1=O` the Potency was inactive: > 76.9 µM.
`COc1cc(OC)c(OC)cc1CNCCc1ccc(OC)c(OC)c1` was tested, and the Potency was inactive: > 76.9 µM.
In the case of `CCCOc1ccccc1C1SCC(=O)Nc2c1c(=O)[nH]n2C(C)CCC` (centres undefined), the Potency is reported as inactive: > 76.9 µM.
In the case of `CC(=NCc1cccnc1)c1c(O)n(-c2ccc(C)cc2)c(=O)[nH]c1=O`, the Potency is reported as inactive: > 76.9 µM.
With `COc1ccc2c(c1OC)C(=O)OC2c1c(O)n(Cc2ccc(F)cc2)c(=O)[nH]c1=O` (centres undefined) the Potency was inactive: > 76.9 µM.
With `O=c1[nH]c(=O)n(Cc2ccc(F)cc2)c(O)c1C=NCCN1CCCCC1` the Potency was inactive: > 76.9 µM.
For `CCOC(=O)C1C(=O)N(C)C2(C)CC1c1cc(OC)ccc1O2` (centres undefined), the Potency was inactive: > 76.9 µM.
In the case of `O=C1NC(=O)C2(Cc3ccccc3N3CCCC32)C(=O)N1c1ccc(Cl)cc1` (centres undefined), the Potency is reported as inactive: > 76.9 µM.
`O=P(CN1CCN(c2ccccc2)CC1)(N1CCCCC1)N1CCCCC1` was tested, and the Potency was inactive: > 76.9 µM.
For `Cn1c(C(=O)N2CCC3(CC2)OCCO3)cc2c(=O)n(C)c3ccccc3c21`, the Potency was inactive: > 76.9 µM.
`Cc1cc(N2C(=O)C3CCCN3C2c2ccccc2)no1` (centres undefined) was tested, and the Potency was inactive: > 76.9 µM.
`Cc1cc(CN(C)C)c(OC(=O)N(C)C)cc1C` was tested, and the Potency was inactive: > 76.9 µM.
With `CC(C)OC(=O)C1C(=O)NC2(C)CC1c1ccccc1O2` (centres undefined) the Potency was inactive: > 76.9 µM.
For `O=C(Cc1ccccc1)N1CCN(C2CCCC2)CC1`, the Potency was inactive: > 76.9 µM.
For `CC(=O)c1c(C)[nH]c(C(=O)N2CCC3(CC2)OCCO3)c1C`, the Potency was inactive: > 76.9 µM.
For `C=CCn1c(O)c(C(CC)=Nc2ccc(N(CC)CC)cc2)c(=O)[nH]c1=O`, the Potency was inactive: > 76.9 µM.
With `Cc1ccc(S(=O)(=O)N2CN3CCN(C3)C2)cc1` the Potency was inactive: > 76.9 µM.
In the case of `CCOC(=O)c1ccc(N2C(=O)CC(N3CCC(C#N)(c4ccccc4)CC3)C2=O)cc1` (centres undefined), the Potency is reported as inactive: > 76.9 µM.
`COc1cccc(-c2cc(C(F)(F)F)n3nc(C(=O)N4CCC5(CC4)OCCO5)cc3n2)c1` was tested, and the Potency was inactive: > 76.9 µM.
With `CN(Cc1ccccc1)Cc1ccccc1OC(=O)N(C)C` the Potency was inactive: > 76.9 µM.
`O=C(c1ccc(CNS(=O)(=O)c2ccccc2)cc1)N1CCC2(CC1)OCCO2` was tested, and the Potency was inactive: > 76.9 µM.
`CCCCn1c(=O)c(C(=O)Nc2ccccc2S(N)(=O)=O)c(O)c2ccccc21` was tested, and the Potency was inactive: > 76.9 µM.
`O=P(O)(O)COc1ccccc1O` was tested, and the Potency was inactive: > 76.9 µM.
In the case of `C=CCn1c(O)c(C(C)=Nc2ccc(C(=O)OCC)cc2)c(=O)[nH]c1=O`, the Potency is reported as inactive: > 76.9 µM.
With `O=C(Cc1ccccc1)N1CCN(C/C=C/c2ccccc2)CC1` the Potency was inactive: > 76.9 µM.
For `COc1ccc(OC)c(N2C(=O)NC(=O)C3(Cc4cc(C)ccc4N(C)C3)C2=O)c1` (centres undefined), the Potency was inactive: > 76.9 µM.
With `O=C(c1ccc(CS(=O)(=O)c2ccccc2)o1)N1CCC2(CC1)OCCO2` the Potency was inactive: > 76.9 µM.
`C=CCN1C(=O)CSc2ccc(C(=O)N3CCC4(CC3)OCCO4)cc21` was tested, and the Potency was inactive: > 76.9 µM.
In the case of `CCS(=O)(=O)N1CCCC(C(=O)N2CCC3(CC2)OCCO3)C1` (centres undefined), the Potency is reported as inactive: > 76.9 µM.
For `O=c1[nH]c(=O)n(Cc2ccc(F)cc2)c(O)c1C=NCc1cccnc1`, the Potency was inactive: > 76.9 µM.
With `Cc1nc2nc(C)c(CCC(=O)N3CCC4(CC3)OCCO4)c(C)n2n1` the Potency was inactive: > 76.9 µM.
`CCCCn1c(=O)c(C(=O)NCc2ccncc2)c(O)c2ccccc21` was tested, and the Potency was inactive: > 76.9 µM.
In the case of `Cc1cc(NC(=O)COC(=O)c2c(C)nn(Cc3ccccc3)c2Cl)no1`, the Potency is reported as inactive: > 76.9 µM.
`CCC(=O)c1cn(Cc2ccccc2C#N)c2ccccc12` was tested, and the Potency was inactive: > 76.9 µM.
`O=C(NCc1ccc(C(=O)N2CCC3(CC2)OCCO3)cc1)c1ccc2c(c1)OCO2` was tested, and the Potency was inactive: > 76.9 µM.
`CC(=NCc1cccnc1)c1c(O)n(C2CCCCC2)c(=O)[nH]c1=O` was tested, and the Potency was inactive: > 76.9 µM.
`O=C(CCS(=O)(=O)c1ccc(Br)cc1)N1CCC2(CC1)OCCO2` was tested, and the Potency was inactive: > 76.9 µM.
In the case of `C(#CCN1CCOCC1)COCC#Cc1ccccc1`, the Potency is reported as inactive: > 76.9 µM.
In the case of `COC(=O)c1cncn1C(C)c1ccccc1` (centres undefined), the Potency is reported as inactive: > 76.9 µM.
With `CN1C2CCC1CC(OC(=O)CCN1CCCC1)C2` (centres undefined) the Potency was inactive: > 76.9 µM.
With `CCCC(=O)Nc1ccc(N2CCN(CC)CC2)c(Cl)c1` the Potency was active: 1.68 µM.
With `Cc1oc(-c2ccc(Cl)cc2)nc1CS(=O)CC(=O)N1CCC2(CC1)OCCO2` (centres undefined) the Potency was inactive: > 76.9 µM.
In the case of `COc1ccc(S(=O)(=O)NC(CC(=O)N2CCC3(CC2)OCCO3)c2ccco2)cc1` (centres undefined), the Potency is reported as inactive: > 76.9 µM.
`COC(=O)C1C2c3ccccc3OC1(C)N=c1s/c(=C/c3cnn(C)c3)c(=O)n12` (centres undefined) was tested, and the Potency was inactive: > 76.9 µM.
With `O=C(NCC(c1cccnc1)N1CCOCC1)Oc1ccccc1` (centres undefined) the Potency was inactive: > 76.9 µM.
With `CCC(=Nc1ccc(OC)cc1OC)c1c(O)n(C)c(=O)n(C)c1=O` the Potency was inactive: > 76.9 µM.
In the case of `Cc1ccc(OCC(=O)N2CCN(CC3CC4C=CC3C4)CC2)cc1` (centres undefined), the Potency is reported as inactive: > 76.9 µM.
`O=C(c1cc(-c2ccncc2)nc2ccccc12)N1CCC2(CC1)OCCO2` was tested, and the Potency was inactive: > 76.9 µM.
With `CCC(=NCCO)c1c(O)n(-c2ccc(Cl)cc2)c(=O)[nH]c1=O` the Potency was inactive: > 76.9 µM.
`CCN1CCN(Cc2nnnn2C(C)(C)C)CC1` was tested, and the Potency was inactive: > 76.9 µM.
In the case of `Cc1cc(C)n2nc(SCC(=O)N3CCC4(CC3)OCCO4)nc2n1`, the Potency is reported as inactive: > 76.9 µM.
With `CN(C)C1=C(C#N)C(c2ccccc2)=NP(N(C)C)(N(C)C)=N1` the Potency was inactive: > 76.9 µM.
In the case of `CCCC(C)C1(CC)C(=O)NC(=Nc2ccc(F)cc2)NC1=O` (centres undefined), the Potency is reported as inactive: > 76.9 µM.
`CN(C)c1cc(N)c2c(n1)CCC2` (tested in a mixture with another compound) was tested, and the Potency was inactive: > 76.9 µM.
For `CCOC(=O)C(C)Oc1cc(C)cc2oc(=O)c3c(c12)CCCC3` (centres undefined), the Potency was inactive: > 76.9 µM.
For `CCC(=NCc1ccc2c(c1)OCO2)c1c(O)n(C)c(=O)n(C)c1=O`, the Potency was inactive: > 76.9 µM.
`CCCC(C)n1[nH]c(=O)c2c1NC(=O)CSC2c1ccc(OC)c(OC)c1` (centres undefined) was tested, and the Potency was inactive: > 76.9 µM.
In the case of `O=C(C1CCC(=O)N1C1CCCCC1)N1CCC2(CC1)OCCO2` (centres undefined), the Potency is reported as inactive: > 76.9 µM.
In the case of `N#Cc1ccccc1Cn1cc(C(=O)C2CC2)c2ccccc21`, the Potency is reported as inactive: > 76.9 µM.
In the case of `Cc1cc(OCC(=O)Nc2cc(C)nn2-c2ccccn2)c2c3c(c(=O)oc2c1)CCC3`, the Potency is reported as inactive: > 76.9 µM.
In the case of `O=c1c2ccccc2[nH]c(=S)n1-c1ccc2c(c1)OCO2`, the Potency is reported as inactive: > 76.9 µM.
With `Nc1cccc(N=Cc2c(O)n(Cc3ccc(F)cc3)c(=O)[nH]c2=O)c1` the Potency was inactive: > 76.9 µM.
With `CCOC(=O)C1CN(C)CCC1=O` (centres undefined) the Potency was inactive: > 76.9 µM.
In the case of `CN1CCC(N(C)c2nc(-c3ccccc3)nc3ccccc23)CC1`, the Potency is reported as “inactive”.
`O=C1C2CCCN2C(c2ccc(Cl)cc2)N1c1ccccn1` (centres undefined) was tested, and the Potency was inactive: > 76.9 µM.
In the case of `COCCOC(=O)c1c(C)oc2ccc(OC(=O)N(C)C)cc12`, the Potency is reported as inactive: > 76.9 µM.
`CS(=O)(=O)N1CCCC(C(=O)N2CCC3(CC2)OCCO3)C1` (centres undefined) was tested, and the Potency was inactive: > 76.9 µM.
With `O=C(Cc1ccccc1)OCn1nnc2ccccc2c1=O` the Potency was inactive: > 76.9 µM.
In the case of `COc1ccc(CCn2c(O)c(C=NCCCN(C)C)c(=O)[nH]c2=O)cc1OC`, the Potency is reported as inactive: > 76.9 µM.
In the case of `CCCNS(=O)(=O)c1ccc(OCC(=O)N2CCN(Cc3ccccc3)CC2)cc1`, the Potency is reported as inactive: > 76.9 µM.
For `O=C1NC(=O)N(Cc2ccccc2Cl)C(=O)/C1=C/N1CCOCC1`, the Potency was inactive: > 76.9 µM.
In the case of `O=C(CCC(=O)N1CCC2(CC1)OCCO2)Nc1nnc(C(F)(F)F)s1`, the Potency is reported as inactive: > 76.9 µM.
For `CCC(=NCCCO)c1c(O)n(-c2ccc(OC)cc2)c(=O)[nH]c1=O`, the Potency was inactive: > 76.9 µM.
For `COc1ccc(N2C(=O)CC(=O)NC2=O)cc1`, the Potency was inactive: > 76.9 µM.
In the case of `O=C(C1CC(=O)N(C2CCCCC2)C1)N1CCC2(CC1)OCCO2` (centres undefined), the Potency is reported as inactive: > 76.9 µM.
For `CCOP(=O)(C#CC(C)(C)C)C(C)(O)c1ccccc1` (centres undefined), the Potency was inactive: > 76.9 µM.
`C=CCn1c(O)c(C=Nc2ccc(OC)cc2C)c(=O)[nH]c1=O` was tested, and the Potency was inactive: > 76.9 µM.
For `CN(C)C1=NP(N(C)C)(N(C)C)=NC(c2ccccc2)=N1`, the Potency was inactive: > 76.9 µM.
`NC(=O)OCCSc1nnc(-c2cccc(C(N)=S)c2)o1` was tested, and the Potency was inactive: > 76.9 µM.
For `O=C(C1CC(c2ccc(Cl)c(Cl)c2)=NO1)N1CCC2(CC1)OCCO2` (centres undefined), the Potency was inactive: > 76.9 µM.
For `O=C(c1csc2c1CCCCC2)N1CCC2(CC1)OCCO2`, the Potency was inactive: > 76.9 µM.
For `O=C(C1CCCN(c2nnc(-n3cccc3)s2)C1)N1CCC2(CC1)OCCO2` (centres undefined), the Potency was inactive: > 76.9 µM.
With `CN(C)CCN=Cc1c(O)n(-c2cccc3ccccc23)c(=O)[nH]c1=O` the Potency was inactive: > 76.9 µM.
With `O=C(c1cc2nc(-c3ccccc3)cc(-c3ccccc3)n2n1)N1CCC2(CC1)OCCO2` the Potency was inactive: > 76.9 µM.
With `CCn1c(O)c(C=NCCc2c[nH]c3ccccc23)c(=O)[nH]c1=O` the Potency was inactive: > 76.9 µM.
`CC(N)Cc1c[nH]c2cc3c(cc12)OCCO3` (centres undefined) was tested, and the Potency was inactive: > 76.9 µM.
With `COC(=O)c1cc2c(s1)=NC=NP=2(N1CCOCC1)N1CCOCC1` the Potency was inactive: > 76.9 µM.
`CCC(=NCc1ccco1)c1c(O)n(-c2ccccc2)c(=O)[nH]c1=O` was tested, and the Potency was inactive: > 76.9 µM.
